Source: the supplement of paper PMC3334620
The full ranking holds about 33,000 sequences; the median of “E-score (-0.5 to 0.5)” is about -0.036, and the highest 2% start at about 0.37. The list shows a part of the results.

Biological target: T1, Yer064c (UniProt P40041)
T1 sequence: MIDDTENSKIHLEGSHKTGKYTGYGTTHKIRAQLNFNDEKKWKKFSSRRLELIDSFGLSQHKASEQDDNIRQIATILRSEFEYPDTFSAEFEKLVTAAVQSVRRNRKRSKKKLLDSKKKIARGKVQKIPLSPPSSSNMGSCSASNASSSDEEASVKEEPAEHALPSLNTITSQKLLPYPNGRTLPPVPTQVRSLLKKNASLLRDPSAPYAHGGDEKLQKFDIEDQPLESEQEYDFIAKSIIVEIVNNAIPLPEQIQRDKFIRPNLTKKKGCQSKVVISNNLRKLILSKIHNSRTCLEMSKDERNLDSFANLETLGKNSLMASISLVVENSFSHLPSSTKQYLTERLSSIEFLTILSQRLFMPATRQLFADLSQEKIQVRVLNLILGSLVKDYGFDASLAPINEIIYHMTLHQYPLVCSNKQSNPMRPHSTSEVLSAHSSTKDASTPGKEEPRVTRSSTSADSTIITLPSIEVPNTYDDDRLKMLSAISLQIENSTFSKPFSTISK
Experiment: PBM E-score (8-mer binding enrichment) (E-score (-0.5 to 0.5)); higher = stronger / more preferred TF binding; most listed sequences are background and not binding sites
Conditions: protein concentration: 200 nM; construct: GST-full length
In short: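 For each ungapped eight-base word taken together with its reverse complement, the Universal PBM Analysis Suite assigned an E-score. Binding data came from GST-tagged yeast transcription factors, applied at about 100-200 nM, on universal all-10-mer Agilent arrays made double-stranded by primer extension. Fluorescent anti-GST marked bound protein, and scans were normalised with masliner.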

Sequence | PBM E-score
AGCTTTCA | -0.0821
GGTTGGAC | -0.139
CGACGGTC | -0.21
AAGTGCTA | -0.0513
AGCGTCGA | -0.102
CAAACAGC | 0.0295
CACCTTGC | -0.0602
CAAACAAA | 0.0284
AAGGGAGA | 0.039
TGGCTACA | 0.195
CTCATCAC | 0.041
GATCATGA | 0.288
GCTGCATA | 0.0688
TCCGGTCA | -0.00307
AATGTGCT | -0.00735
AGGGCCTA | -0.317
ACGCTTTC | -0.198
CTGGCATC | -0.242
AAGGTATC | -0.193
CTGGCGTA | -0.0778
CTATGGTC | 0.0987
AATCCGCA | 0.144
ATACACGC | -0.0268
ATCGGGTG | -0.0828
CTGCCCCA | -0.11

Sequence | PBM E-score
GAAACTAA | 0.0454
GCTATGAA | -0.00466
GTCCAGTA | -0.158
ATTGTACG | 0.103
AACACAAT | 0.175
CACTACTG | -0.0157
GAAGGCCA | -0.178
AATAACAA | -0.0961
CCAAGCCA | -0.0874
TCGTACAA | 0.237
AAGAAAAG | 0.12
GGGGCGTA | -0.269
CACTACCG | -0.0981
CCGGCTGA | 0.165
ACTTTGTC | 0.0135
CCAGCTCA | -0.197
ATCTTATA | 0.0575
CCCAGATA | -0.0728
ATTGACCG | -0.0381
CAACGCGG | -0.0834
ACAGCCGC | -0.188
ACCATTCA | 0.0643
GGTGCGAA | -0.031
TCGACACA | 0.0595
ATAGAGTA | 0.134

Sequence | PBM E-score
AAGATAGT | 0.229
GGTTCAAC | 0.115
ACAAGCCG | -0.166
GAACACGA | 0.0999
GTCGGGAA | 0.0416
CCCCCGTA | -0.195
CGGGCAAG | -0.131
CTACTGAA | 0.26
TACTTCAA | 0.126
CCTACCTC | -0.111
CCCATAGC | -0.102
ATGACCCA | 0.294
CTATATTA | 0.204
AGGGGACA | -0.224
ATTGTAGG | 0.077
CCCTGGAG | -0.18
CCAAATTC | -0.112
ATACGTAC | -0.0382
AAGAAGTG | -0.154
ATTACAGA | 0.172
CGTTCATC | -0.195
CATGTCTC | 0.345
CAAGGTAC | -0.187
CGTCTGAG | 0.0663
CGATAAGA | 0.186

Sequence | PBM E-score
CAACGTAA | 0.0311
ATAATTGC | -0.174
AGAGTTGG | -0.0749
GGTGGCAA | -0.121
CCCTGAGC | 0.0214
AGCTTATA | -0.281
ACTTCACC | 0.109
ACCATCAG | -0.0406
CATTGGAA | 0.0795
AATCTCCA | -0.0439
CAAAGTAG | -0.00121
CGGGGGAC | -0.0523
ACTATAGG | 0.119
ACTCGACT | 0.294
GACTTCTA | 0.28
AGGCAGAC | -0.0717
AGTGAAAT | 0.143
CCTAAGTC | 0.276
CCTGAACA | -0.103
GAGCCCAC | -0.116
ACGGTGGA | -0.044
CCTCTAAG | 0.0103
CTGGCCTC | -0.291
GGGCGTAA | -0.277
AACTTCAG | -0.0277

Sequence | PBM E-score
AGGAGTTC | -0.135
CGCAAACC | -0.205
GTGATTGA | 0.401
GGTTGAAA | 0.00794
AAGTGTAC | 0.0702
AGGCATGC | -0.067
CCCATGTA | 0.0302
CGCGAGAC | 0.127
AAGGAAGA | 0.101
ACCTGCTG | -0.051
AAACCCGA | 0.0219
GGCCTCTA | -0.16
TCCATGGA | 0.0904
GAGATAGA | -0.206
ATCAAGTG | 0.148
TATGCCCA | -0.243
AAATGCAC | -0.271
TAGTGTAA | -0.0832
CCATATTA | -0.0209
ACAGGCAT | -0.147
AGCCGGAG | -0.00437
AGGATCGA | -0.13
CCTGAACC | 0.103
GTATACAC | 0.111
CCATGTCA | 0.0043

Sequence | PBM E-score
GGCAGCCC | -0.361
GAAGGCAC | -0.123
AGCAAGCG | -0.213
CTTAGTGC | -0.0473
GGGGACAC | -0.139
CCTTGGAC | -0.111
GTTGCGCA | -0.0205
TGTCCAAA | -0.0925
ATTCCGTC | 0.00574
GTGTCCGA | -0.115
AAGACCTT | -0.109
GGGGGTGA | 0.0959
AACCCACT | -0.0489
CACCGGGC | -0.0144
AGGAGGAT | -0.277
AAGCCTAC | -0.182
CCAGCGAG | -0.045
ACCAGCCT | -0.262
GCTTGTCC | -0.123
GTTAAAAA | 0.0739
ATCAATTC | 0.0434
CCCGCTTC | -0.194
CTTGGAAA | -0.0507
AGACCGAC | -0.0493
GCCACCGA | -0.0215

Sequence | PBM E-score
ACGTTATC | -0.143
AGCACTGA | 0.191
ATCCTGAC | 0.172
AACAGCCT | -0.224
CCCAGGGA | -0.258
TGGAGTAA | 0.17
CGAAATCC | -0.158
CGCTAACA | -0.0316
CGAGTATA | 0.0439
ACATATGC | -0.144
ATATTTTA | 0.0625
TCTTGCAA | 0.0602
ATCAGTAG | 0.242
ATCCGACC | -0.0508
AGGTAAAG | -0.00367
ACCCCATC | -0.0645
ACAGTTGA | 0.0659
CATGGACC | -0.185
ACTGCGCA | 0.0561
AATTACTG | -0.0389
CCCATAAC | -0.101
AGTTTATA | -0.0115
